Assay results from article PMC12040169 (PLOS Biology, 2025).
This is one part of the list.

Test system: T1, C. trachomatis L2/434/Bu expressing GFP (CTL2-GFP)
T1 construct: L2/434/Bu GFP intracellular growth in HeLa cells
Design: species or system HeLa; C. trachomatis total inclusion area by high-content imaging, normalised to DMSO
Settings: total inclusion area; 28.5 h, 10 µM; inhibitor
Procedure, shortened: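 Post-fluorescence-read fixation, DNA staining with Hoechst and high-content imaging; GFP inclusion area and number per well, and nuclei counts, used as proxies for bacterial growth and host viability.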

| Compound | % of control remaining |
| --- | --- |
| Cc1cc(C)c(S(=O)(=O)N2CCC(C(=O)Nc3ccc(C(N)=O)cc3)CC2)c(C)c1 [CBK266424] | 106.554 |
| N#Cc1sc2nc(-c3ccncc3)ccc2c1N [CBK288547] | 86.8187 |
| CC1CCN(S(=O)(=O)c2ccc(NC(=O)CN3CCOCC3)cc2)CC1 [CBK268339] | 127.064 |
| COc1ccc(CN[C@H]2[C@H](O)[C@@H](N3CCN(C(C)=O)CC3)[C@@H]3OC[C@H]2O3)cc1 [CBK288808] | 93.3642 |
| CC(=O)Nc1cccc(Oc2nccnc2-c2cc3ccccc3s2)c1 [CBK106784] | 87.3681 |
| Clc1ccc(-n2c(SCc3nc4ccccc4[nH]3)nnc2-c2ccncc2)cc1 [CBK267557] | 114.24 |
| CS(=O)(=O)Nc1cc2cccnc2nc1-c1ccccc1 [CBK085689] | 90.9934 |
| COC(=O)c1sc2cc(NC(=S)NNC(=O)c3ccoc3C)ccc2c1Cl [CBK266877] | 106.614 |
| CC(=O)N1CCC2(C/C=C/C[C@H]3CN(C(=O)C4CCC4)CC[C@H]3NC(=O)CNC2=O)CC1 [CBK292108] | 99.6168 |
| CCN(CCn1cccn1)c1nc2nonc2nc1N(C)C [CBK306630] | 73.2488 |
| O=C1CC(c2cc(F)ccc2F)c2c(-c3ccc(Cl)cc3)n[nH]c2N1 (stereo not drawn) [CBK288000] | 81.2105 |
| COc1cccc2c1OCC[C@@H]2Oc1cncc(N2CCNCC2)n1 [CBK172305G] | 106.415 |
| Cc1ccc(CS(=O)(=O)NCc2ccccc2-n2ccnc2)cc1 [CBK281462] | 102.593 |
| CC(NC(=O)CSc1ncc(-c2ccccc2)nn1)c1ccccc1 (stereo not drawn) [CBK267514] | 101.341 |
| COc1ccc2nc(Nc3nc4ccc(S(C)(=O)=O)cc4s3)sc2c1 [CBK287484] | 110.857 |
| OCCN(CCO)Cc1ccc(Cl)c(Cl)c1 [CBK261919] | 95.0843 |
| CCc1nccn1CCC(=O)N1CC(OCc2ccccc2F)C1 [CBK306597] | 34.4438 |
| COc1ccc(OCc2nc(C)cc(=O)n2CC(=O)NC(C)C)cc1 [CBK300525] | 88.0532 |
| CC(C)(C)c1csc(NC(=O)C2CCCCC2)n1 [CBK058720] | 12.7219 |
| O=C(Nc1ccc(F)cc1)OCC1COc2ccccc2C1 (stereo not drawn) [CBK017146] | 76.2218 |
| CS(=O)(=O)N1CC2(CCN(Cc3ccc([N+](=O)[O-])cc3)CC2)c2ccccc21 [CBK084010] | 66.7032 |
| CC(C)NC(=O)CC[C@@H]1CNC(=O)[C@@H]2C[C@H](NC(=O)c3ccccc3)CN12 [CBK289002] | 94.8913 |
| Nc1c(C(=O)NCc2ccco2)c2nc3ccccc3nc2n1C1CCCC1 [CBK269323] | 54.0697 |
| c1csc(Sc2nccnc2N2CCCC2)n1 [CBK093805] | 114.89 |
| CN(C)CCNC(=O)c1cccc(-c2cncc(NCc3ccc4c(c3)OCO4)n2)c1 [CBK065361] | 102.72 |
| Cc1ccc(CNC(=O)CN(c2cccc(C(F)(F)F)c2)S(=O)(=O)c2ccc(C)cc2)cc1 [CBK263997] | 108.634 |

| Compound | % of control remaining |
| --- | --- |
| CN(Cc1ccccc1)C(=O)c1cc(=O)[nH]c2ccccc12 [CBK287971] | 63.571 |
| O=C(c1ccncc1)N1Cc2ccccc2C1 [CBK200316] | 125.468 |
| OC(CNCc1ccc2c(c1)OCO2)CSc1ccccc1 (stereo not drawn) [CBK074684] | 63.9701 |
| CC(=O)Nc1ccc(NC(=O)CSC2=C(C#N)C(c3ccco3)C3=C(CCCC3=O)N2)cc1 (stereo not drawn) [CBK264462] | 110.661 |
| O=C(O)CNS(=O)(=O)c1cccc2nsnc12 [CBK261136] | 102.918 |
| O=C(O)COc1ccc(/C=C/c2nc3n(n2)C=COc2ccccc2-3)cc1 [CBK286650] | 71.5967 |
| CCc1cc(CNC(=O)C(c2ccc(Cl)cc2)N(C)C)on1 (stereo not drawn) [CBK281670] | 94.3351 |
| O=C(O)CSc1nnc2ccc(C(F)(F)F)cn12 [CBK018930] | 82.6747 |
| COc1ccccc1-c1nccnc1N1CCN(c2ccncc2)CC1 [CBK037081] | 105.366 |
| CC1=NN(C(=O)NS(=O)(=O)c2ccccc2Cl)C(C)(C)C1 [CBK018947] | 66.9239 |
| O=C(O)C1C2C=CC(O2)C1C(=O)NCCCc1ccccc1 (stereo not drawn) [CBK286982] | 82.0679 |
| O=c1[nH]nc(SCc2csc(COc3ccc(Cl)cc3)n2)n1C1CC1 [CBK295146] | 19.6232 |
| CN1CCC(N2CCN(C(=O)c3ccc4c(c3)no[n+]4[O-])CC2)CC1 [CBK149095] | 128.433 |
| C=C(C)Cn1c(SC(C)C)nnc1-c1ccccc1OC(F)(F)F [CBK200081] | 117.97 |
| CN1C(=O)C2(CC(=O)N(CCC3CCCCC3)C2=O)c2ccccc21 (stereo not drawn) [CBK075461] | 96.7743 |
| O=C(CN1CCCN(c2ncc(C(F)(F)F)cc2Cl)CC1)Nc1c(F)cccc1F [CBK074636] | 95.8408 |
| CC(c1ccc(F)c(F)c1)N(C)C(=O)Cn1cnc2c(c1=O)CCC2 (stereo not drawn) [CBK306291] | 68.4825 |
| Cc1ccc2nc3c(cc(C(=O)NC4CCCC4)c(=N)n3Cc3ccco3)c(=O)n2c1 [CBK265242] | 98.4391 |
| Fc1ccc(Sc2cccc(C(F)(F)F)n2)cc1 [CBK115240] | 64.5336 |
| Cc1cc(C)nc(Nc2ccc(C3CCCN(S(=O)(=O)c4ccc(F)cc4)C3)nc2)n1 (stereo not drawn) [CBK285987] | 74.5777 |
| CC(C)(C)C(=O)N1CCC2(CC1)Nc1cccnc1-n1cccc12 [CBK284507] | 92.3789 |
| COc1ccc(-c2cc(C(=O)NCCc3ccncc3)cnc2-c2ccc(F)cc2)cc1 [CBK037434] | 108.485 |
| COC(=O)C1CCCCN1S(=O)(=O)c1cccs1 (stereo not drawn) [CBK051135] | 60.1383 |
| c1ccc(CCNc2nccnc2-c2cccs2)nc1 [CBK036776] | 115.029 |
| CN(C)c1ccc(C(=O)N2CC(=O)Nc3ccccc32)cc1 [CBK017839] | 90.3739 |
